In PubChem BioAssay AID488969 (Vanderbilt High Throughput Screening Facility, 2010):
In all, about 110,000 compounds were measured (“z-score”: median about -0.1, highest 2% from about 2 on). This is one part of the list. Active and inactive are the calls of the source.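 The calls were made as follows: active = z-score in the third read window above 3 or below -3; inactive = the rest.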

What follows are compounds tested against Metabotropic glutamate receptor 8 (Rattus norvegicus) (UniProt P70579) (assay: rat mGluR8 modulators via GIRK flux, primary screen, cell-based, thallium flux, HTS (AID 488969)). Settings: HEK293 rat mGluR8, GIRK (G protein-gated inwardly rectifying potassium channel) thallium flux, FluoZin2; at 10 µM; stronger effect = higher value; submaximal glutamate (EC20) added with thallium.
Sequence of UniProt P70579 (P70579 whole entry, looked up): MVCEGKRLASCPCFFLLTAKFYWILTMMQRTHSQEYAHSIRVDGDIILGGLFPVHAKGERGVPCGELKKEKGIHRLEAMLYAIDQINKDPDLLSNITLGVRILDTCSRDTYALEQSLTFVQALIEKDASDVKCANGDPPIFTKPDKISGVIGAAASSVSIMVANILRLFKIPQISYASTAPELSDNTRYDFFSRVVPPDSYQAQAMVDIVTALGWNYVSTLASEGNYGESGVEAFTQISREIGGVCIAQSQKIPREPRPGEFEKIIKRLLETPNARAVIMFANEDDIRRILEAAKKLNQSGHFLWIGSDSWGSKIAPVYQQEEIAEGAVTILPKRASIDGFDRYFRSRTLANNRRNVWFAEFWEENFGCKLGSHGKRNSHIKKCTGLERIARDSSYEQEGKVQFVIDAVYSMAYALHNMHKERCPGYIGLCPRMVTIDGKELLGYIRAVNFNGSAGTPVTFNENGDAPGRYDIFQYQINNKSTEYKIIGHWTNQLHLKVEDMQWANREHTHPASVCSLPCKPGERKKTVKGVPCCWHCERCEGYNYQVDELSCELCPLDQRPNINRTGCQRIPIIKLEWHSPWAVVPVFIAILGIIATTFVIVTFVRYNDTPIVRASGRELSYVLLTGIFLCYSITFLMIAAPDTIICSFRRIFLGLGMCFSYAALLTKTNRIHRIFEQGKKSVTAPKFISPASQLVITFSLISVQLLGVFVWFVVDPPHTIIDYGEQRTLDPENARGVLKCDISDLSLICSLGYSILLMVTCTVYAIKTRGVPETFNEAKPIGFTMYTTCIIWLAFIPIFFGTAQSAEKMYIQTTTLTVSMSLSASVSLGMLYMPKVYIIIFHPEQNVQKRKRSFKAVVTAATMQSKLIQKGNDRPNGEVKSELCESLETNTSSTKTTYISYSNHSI
COc1ccc2c(C)nc(Nc3nc(C)c(C)c(=O)[nH]3)nc2c1 showed a z-score of -0.623. Compound COc1cc(C(=O)NCC(c2cccs2)N(C)C)cc(Cl)c1OC(C)C (centres undefined) has a z-score of -0.621. In the case of CCCCc1c(O)nc(SCCC(=O)O)[nH]c1=O, the z-score was -0.183. In the case of CC(=O)c1c(C(C)=O)c(C)n(-c2nc(-c3ccccc3)c(C)s2)c1C, the z-score was -0.399. Cc1ccc(C(C(=O)NCc2ccco2)N(C(=O)CNC(=O)c2cccs2)c2ccc(C)cc2C)cc1 (centres undefined) showed a z-score of -0.0836. Work on CCOC(=O)c1sc(NS(=O)(=O)c2ccccc2Cl)nc1C yielded a z-score of 0.343. Cc1ccc(S(=O)(=O)N2CCCCC2)cc1NC(=O)CSc1ccc2c(c1)OCCO2 was tested, and the z-score was -0.361. In the case of CCOC(=O)Cc1c(C)c2c(C)[nH]nc2oc1=O, the z-score was -0.549. Compound NC(=O)c1nn(-c2ccccc2)nc1N has a z-score of 0.138. Work on O=C(CN1C(=O)COc2ccccc21)NCCCN1CCc2ccccc2C1 yielded a z-score of 0.383. Work on Cn1c2ccccc2c2c(C(=O)N3CCN(C(=O)c4ccco4)CC3)cn(C3CCCCC3)c(=O)c21 yielded a z-score of -0.126. CCOC(=O)/C(C#N)=C/c1c(Oc2cc(C)cc(C)c2)nc2ccccn2c1=O showed a z-score of -0.027. Compound CC(C)C(O)(C#CCN1CCCC1)c1ccccc1 (centres undefined) has a z-score of -0.181. CC(C)CCNC(=O)CN(C)S(=O)(=O)c1cccc2nsnc12 was tested, and the z-score was -0.869. O=C(NC(=S)N1CCN(c2ccc(F)cc2)CC1)C12CC3CC(CC(C3)C1)C2 gave a z-score of 2.89. O=C(c1ccco1)c1nnn(Cc2ccccc2)c1-c1ccccc1 gave a z-score of -0.338. Compound CC(=O)Nc1ccc(S(=O)(=O)N2CCN(C(C)CCc3ccccc3)CC2)cc1 (centres undefined) has a z-score of 0.289. In the case of C=CCSC1=N/C(=C\c2cccnc2)C(=O)N1c1ccc(OC)cc1, the z-score was -0.066. Cc1ccccc1NC(=S)NC(NC(=O)c1ccccc1C)C(Cl)(Cl)Cl (centres undefined) gave a z-score of -0.0574. For O=[N+]([O-])c1cc(S(=O)(=O)Nc2ccccc2)ccc1N1CCN(c2ccccc2)CC1, the z-score was -0.119. CC1CCN(S(=O)(=O)Cc2ccccc2Cl)CC1 showed a z-score of -0.252. With CCOc1ccccc1NC(=O)c1cccc(S(=O)(=O)N(Cc2ccccc2)c2ccccc2OC)c1 the z-score was -0.414. In the case of CCOC(=O)c1cc2c(s1)-c1c(C)cccc1OC2, the z-score was 0.00792. Work on COC(=O)c1sccc1NC(=O)C1C2C=CC(C2)C1C(=O)O (centres undefined) yielded a z-score of -0.844. For CCOC(=O)N1CCN(C(=O)c2cn(CC)c3ccc(S(=O)(=O)N4CCCC4)cc3c2=O)CC1, the z-score was 1.25. N#Cc1cnn(-c2ncnc3sc4c(c23)CCCC4)c1N gave a z-score of -0.172. CC1(C)CC(=O)C=C(NC2CC(C)(C)NC(C)(C)C2)C1 was tested, and the z-score was -0.225. For CC(C)C(=O)NC(=S)Nc1ccc(S(=O)(=O)Nc2ccccc2)cc1, the z-score was -0.173. In the case of O=[N+]([O-])c1ccc(/C=N/n2c(COc3ccccc3)n[nH]c2=S)cc1, the z-score was 0.438. With CCCC(=O)NCCc1nc2cc([N+](=O)[O-])ccc2n1C the z-score was -0.332. Work on CSc1ccc(N2C(=O)NC3(CCCCC3)C2=O)cc1 yielded a z-score of 1.13. Compound O=C(CSc1nc2ccccc2c(=O)n1Cc1ccco1)N1CCN(c2ccccc2)CC1 has a z-score of -2.1. With Clc1cccc(CON/C=N/c2ncnc3sccc23)c1 the z-score was 0.127. For CCOC(=O)C1(c2csc(N)n2)COC(=O)C1 (centres undefined), the z-score was 0.712. For Cc1ccccc1OCC(O)Cn1c2ccccc2c2ccccc21 (centres undefined), the z-score was -0.312. CNc1ncc(C(=O)c2ccccc2)s1 gave a z-score of -0.0506. Work on Cc1ccc(C(=O)NCC(C)(C)O)cc1 yielded a z-score of -0.259. For COc1cc2c(cc1OC)C(C(C)C)=NC(C)(C)C2, the z-score was 0.389. With CC(C)NC(=S)N/N=C1\CCCCc2ccccc21 the z-score was -0.471. Cc1ccc(C(=O)N2CCN(c3ccc(Cl)cc3)CC2)cc1 gave a z-score of -0.114. Cc1ccccc1NC(=O)/C(=C/c1ccccc1)c1ccccc1 gave a z-score of -0.447. Cc1cc(C)nc(Nc2nc(C)c3cc4c(cc3n2)OCO4)n1 showed a z-score of -0.794. Compound CCC1CCCCN1CCCNC(=O)C1CCC(Cn2c(=O)[nH]c3ccccc3c2=O)CC1 (centres undefined) has a z-score of -0.212. CO/N=C/c1ccc(N2CCN(C(=O)c3cccc(Cl)c3)CC2)c([N+](=O)[O-])c1 showed a z-score of 0.0935. O=C(c1cccc(F)c1)N1CCCC(C(=O)N2CCCC2)C1 (centres undefined) gave a z-score of 0.348. Cc1nc2ccc(NC(=O)N3CCSCC3)cc2nc1C was tested, and the z-score was 0.208. In the case of CCOc1ccc2[nH]c(O)c(NC(C)=O)c2c1, the z-score was -0.136. With CC1CCN(C(=O)CSc2nnc(-c3ccncc3)n2C)CC1 the z-score was -0.27. COc1ccc(CN=C2NC(=O)CC(C(=O)Nc3ccc([N+](=O)[O-])cc3C)S2)cc1 (centres undefined) showed a z-score of -0.193. With O=C(Cc1ccc(Cl)cc1)N/N=C/c1c(Cl)cccc1Cl the z-score was 0.261. With CCCCCCCC(=O)NNC(=O)Cc1ccccc1 the z-score was -0.119. Compound COc1ccc(-c2cn(-c3ccc(C)cc3)c(=O)n2CC(=O)Nc2ccc(OC)cc2OC)cc1 has a z-score of -0.429. With Cc1ccc(-c2nnc3sc(-c4ccc5c(c4)OCCO5)nn23)cc1 the z-score was 1.36. Work on Cc1occc1C(=O)N1CCCc2ccccc21 yielded a z-score of -0.103. With COc1cc2nc(NCCCN3CCN(C)CC3)n3nc(-c4ccccc4)nc3c2cc1OC the z-score was 0.207. For COc1ccccc1OCC(=O)OCC(=O)Nc1ncc(Cl)cc1Cl, the z-score was -0.563. Cc1nc(C)c(C(=O)C2=C(O)C(=O)N(CCN3CCOCC3)C2c2cccs2)s1 (centres undefined) was tested, and the z-score was 0.147. With CCOc1ccc(/C=C/C(=O)c2ccccc2)cc1OC the z-score was -1.08. Work on CC(=O)Nc1ccc2nc(-c3ccc(Br)o3)[nH]c2c1 yielded a z-score of -0.347. For CCOC(=O)C(C)Oc1c(Br)cc(C2NC(=O)NC(C)=C2C(C)=O)cc1OCC (centres undefined), the z-score was -0.276. COc1ccc(CCNC(=O)c2ccc(Cl)c(S(=O)(=O)N(C)c3ccccc3)c2)cc1 was tested, and the z-score was -0.629. O=c1cc(CN2CCN(c3ccccc3O)CC2)nc2sccn12 showed a z-score of -0.31. In the case of COc1ccc(C(C(=O)NC2CCCCC2)N(Cc2ccco2)C(=O)CNC(=O)c2ccco2)cc1 (centres undefined), the z-score was 0.256. In the case of CCOc1ncccc1C(=O)OCC(=O)N1CC(=O)Nc2ccccc21, the z-score was 2.36. With COc1ccc(-n2c(SCC(=O)Nc3ccc(C(=O)O)cc3)nnc2-c2cccs2)cc1 the z-score was 0.0972. Cc1c(-c2ccccc2)oc2c(C(=O)OCC(=O)Nc3ccc(C(N)=O)cc3)cccc2c1=O showed a z-score of -1.33. For COCCN(C(=O)CCC(=O)Nc1ccccn1)C(C(=O)NC1CCCC1)c1ccc(OC)cc1 (centres undefined), the z-score was -0.622. For COc1cccc2c1OC[C@@H](CO)[C@H]2N(C)C(=O)Nc1ccccc1, the z-score was active: 6.33. For CCCC(C)n1[nH]c(=O)c2c(C)cc(C)nc21 (centres undefined), the z-score was -0.255.
